Experimental data as given in PubChem BioAssay AID651820 (National Center for Advancing Translational Sciences (NCATS), 2012).
In all, about 340,000 compounds went through this assay and about 12,000 (3.5%) were called active. This list was built around the results that the source calls inconclusive (neither active nor inactive); the mix of calls is not that of the screen. The call rests on the fitted dose curve; in most records, active means well fitted inhibition curve with a large enough effect; inconclusive means small, poorly fitted or top-dose-only effect, or another doubt; inactive means no such curve, though single readings can be large or run the other way. Potencies of inconclusive entries are left out as doubtful fits.
On the % scale 0 is the no-effect control and ±100 the full control effect; potency means the concentration at half of the fitted maximal effect; tags describe the fitted curve by direction and shape.

Test: qHTS Assay for Inhibitors of Hepatitis C Virus (HCV)
Details: Huh7.5.1 HCVcc-Cre (HCVcc is cell-culture hepatitis C virus) infection, luciferase reporter, 44 h; activity change, negative = inhibition: at 41.8 µM (top of the series) unless noted
Procedure, shortened: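 Cells (1,000/well) were plated 4 h before compound, then infected with HCVcc-Cre virus (~0.5 moi). After 44 h further culture, infection was read as luciferase luminescence following a 15 min substrate incubation at room temperature.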
With CC(=O)Oc1ccccc1/C=C/c1ccc2ccccc2[n+]1C the Potency was inconclusive [inhibitor, single point]. In the case of COc1ccc(/C(C)=N/N=C(N)N)c(O)c1, the “activity change, negative = inhibition” value is reported as inactive: -8.89%. For Cc1ccc(C(=O)NCCn2cc(SCC(=O)Nc3cc(C)on3)c3ccccc32)cc1, the Potency was inconclusive [inhibitor, single point]. For CC(=O)c1cc(F)ccc1OCC(=O)N1CCN(c2ccc(F)cc2)CC1, the Potency was inconclusive [inhibitor, single point]. With CCOC(=O)c1c(/N=C/c2ccc(C)cc2O)sc2c1CCC2 the Potency was inconclusive [inhibitor, single point]. For O=C1C[C@H]2[C@H](CO)[C@@H](OC(=O)c3ccc(-c4ccccc4)cc3)C[C@H]2O1, the Potency was inconclusive [inhibitor, single point]. For Cc1cccc(C(=O)Nc2ccc3c(c2)C(=O)N(CC(C)C)C3=O)c1, the Potency was inconclusive [inhibitor, full curve]. With O=C1c2cccnc2C(Nc2ccc(F)c(Cl)c2)N1Cc1cccs1 (stereo not drawn) the “activity change, negative = inhibition” value was inactive: -5.07%. In the case of CCOc1ccc(NC(=O)CCNC(=O)c2ccco2)cc1, the “activity change, negative = inhibition” value is reported as inactive: -17.5%. With FC(F)(F)Oc1ccc(NC(=S)Nc2ccc(OC(F)(F)F)cc2)cc1 the Potency was inconclusive [inhibitor, single point]. In the case of CCc1ccccc1NC(=O)c1cc(C)no1, the “activity change, negative = inhibition” value is reported as inactive: 12.3%. In the case of Cc1ccccc1C(OCCN(C(C)C)C(C)C)c1ccccc1 (stereo not drawn), the “activity change, negative = inhibition” value is reported as inactive: -2.31%. For O=C1/C(=C\c2ccc(O)c(O)c2)SC(=S)N1Cc1ccccc1, the Potency was inconclusive [inhibitor, single point]. In the case of CC(=O)c1ccc2c(c1)c1ccccc1n2CC(C)C, the Potency is reported as active: 2.51 µM. For CCOC(=O)C1(CCCc2ccccc2)CCN(S(=O)(=O)N(C)C)CC1, the Potency was inconclusive [inhibitor, single point]. With COc1ccc(/C(C)=N/NC(=O)CNC(=O)/C=C\c2ccco2)cc1 the Potency was inconclusive [inhibitor, partial curve, poor fit]. In the case of COc1ccc(Oc2nc(SC)nc3ccccc23)cc1, the Potency is reported as inconclusive [inhibitor, single point]. In the case of O=C(Cc1ccccc1)N[C@@H](Cc1ccccc1)c1nc2ccccc2[nH]1, the Potency is reported as inconclusive [inhibitor, single point]. With COc1ccc(N2CCN(C(=O)c3ccc(COc4ccc5c(C)cc(=O)oc5c4)cc3)CC2)cc1 the Potency was inconclusive [inhibitor, single point]. For COc1ccc2[nH]c3c(=O)n(/N=C/[C@H]4C(C)C=C(C)CC4C)c(=O)[nH]c3c2c1 (stereo partly drawn), the Potency was inconclusive [inhibitor, single point]. In the case of Cc1nnc(NC(=O)c2sc3nc(-c4cccs4)cc(C(F)(F)F)c3c2N)s1, the Potency is reported as inconclusive [inhibitor, full curve, poor fit]. In the case of CCCNC(=O)C(Cc1ccc(Cl)cc1)NC(=O)c1ccc(-c2ccccc2)cc1 (stereo not drawn), the Potency is reported as inconclusive [inhibitor, partial curve, poor fit]. With Cc1nn(Cc2cccc(C(=O)NCC(C)C)c2)c(C)c1Br the Potency was inconclusive [inhibitor, partial curve]. In the case of O=C(c1cc(Cl)nc2ccccc12)N(Cc1nnc(-c2ccccc2Cl)o1)C1CC1, the Potency is reported as inconclusive [inhibitor, single point]. For O=C(NCc1ccco1)c1ccc2nc3sc4c(c3c(=O)n2c1)CCCC4, the Potency was inconclusive [inhibitor, full curve, poor fit]. In the case of O=C(C1=C[C@H](C2CC2)C[C@H](OCc2ccc(CO)cc2)O1)N1CCN(Cc2ccc3c(c2)OCO3)CC1, the Potency is reported as inconclusive [inhibitor, single point]. With C/C(=N\NC(=O)c1ccc(N/N=C(\C)c2ccc(O)cc2)cc1)c1ccc(O)cc1 the Potency was inconclusive [inhibitor, partial curve]. In the case of CCCCn1c(N)c(N(CCOC)C(=O)CC(NC(=O)c2ccccc2Cl)c2ccccc2)c(=O)[nH]c1=O (stereo not drawn), the “activity change, negative = inhibition” value is reported as inactive: -3.53%. For Cn1c(=O)c2c(SCC(=O)NCC3CCCO3)nc(-c3ccccc3Cl)nc2n(C)c1=O (stereo not drawn), the Potency was inconclusive [inhibitor, single point]. In the case of Cc1[nH]n(-c2ccccc2)c(=O)c1C(=O)c1cccc(F)c1, the Potency is reported as inconclusive [inhibitor, single point]. For COc1cc2c(cc1OC)C(c1cc(OC)c(OC)c(OC)c1)NCC2 (stereo not drawn), the Potency was inconclusive [inhibitor, single point]. In the case of COc1cc(NC(=O)c2cccc(COCC(F)(F)C(F)F)c2)cc(OC)c1OC, the Potency is reported as inconclusive [inhibitor, partial curve]. In the case of CC[N+](CC)(CC)CCOc1ccc(/C=C/c2ccccc2)cc1, the Potency is reported as inconclusive [inhibitor, single point]. In the case of COC(=O)C1CCN(C(=O)COC(=O)c2cc(-c3cccs3)nn2-c2ccccc2)CC1, the Potency is reported as inconclusive [inhibitor, single point]. With Cc1ccccc1Cn1c(C)nc2ccccc21 the Potency was active: 5.62 µM. With COc1ccc(-n2cc(-c3ccccc3)c3c(N4CCOCC4)ncnc32)cc1 the Potency was inconclusive [inhibitor, partial curve]. In the case of COc1ccc(CN2CC(=O)N(c3ccccc3OC)C2=S)cc1OC, the “activity change, negative = inhibition” value is reported as inactive: -2.57%. For Cc1cccc(C)c1OCC(O)CN(Cc1ccccc1O)C1CCCCC1 (stereo not drawn), the Potency was inconclusive [inhibitor, single point]. With CCn1nnc(-c2ccccc2NS(=O)(=O)c2ccc(C(=O)OC)cc2)n1 the Potency was inconclusive [inhibitor, partial curve]. With O=C(CCl)Nc1cccc(Oc2ccccc2)c1 the Potency was inconclusive [inhibitor, single point]. With C=CC[C@@H](CC(=O)N[C@H](CO)Cc1ccccc1)C(=O)NC[C@H](OC(=O)[C@@H](CC=C)Cc1ccc(F)cc1)c1ccccc1 the Potency was inconclusive [inhibitor, single point]. In the case of CCN(CC(=O)Nc1ccc(OC)cc1)C(=O)c1ccc(N2C(=O)CCC2=O)cc1, the “activity change, negative = inhibition” value is reported as inactive: 4.3%. For COc1cc(-c2nnc(NC(=O)C3=COCCO3)o2)cc(OC)c1OC, the Potency was inconclusive [inhibitor, partial curve]. In the case of COc1ccc(C(=O)NCCC2=CCCCC2)cc1S(=O)(=O)N1CCOCC1, the “activity change, negative = inhibition” value is reported as inactive: -7.47%. For CCN(CC)S(=O)(=O)c1cc(NC(=S)NC(=O)C2CCCC2)ccc1C, the Potency was active: 3.16 µM. With CC(C)(C)OC(=O)C[C@@H]1C/C=C\C[C@H](CC(=O)N[C@H](CO)Cc2ccccc2)C(=O)N[C@H](C(C)(C)C)COC1=O the “activity change, negative = inhibition” value was inactive: 15%. With CNS(=O)(=O)c1cccc(C(=O)OCC(=O)NC(C)CCc2ccccc2)c1 (stereo not drawn) the “activity change, negative = inhibition” value was inactive: 10.6%. For C=C1/C=C(\C)[C@](C)(O)C[C@H](O)CC(=O)[C@H](O)[C@@H](O)[C@H](C)C[C@H](C)OC(=O)/C(C)=C/CC/C=C/[C@@H]2O[C@H]2C[C@H](C)C1, the “activity change, negative = inhibition” value was inactive: 11.4%. For CCCCCC1CC(CC(=O)O)C(=O)O1 (stereo not drawn), the “activity change, negative = inhibition” value was inactive: 10.4%. For COc1ccccc1OCc1nc2ccccc2s1, the “activity change, negative = inhibition” value was inactive: 13.9%. In the case of O=[N+]([O-])c1cc(/C=N/N/C(=N/c2ccccn2)c2ccccn2)ccc1O, the Potency is reported as inconclusive [inhibitor, full curve]. For COC(=O)C1=C(C(=O)OC)[C@@H]2N(Cc3ccccc3)c3ccccc3[C@@]23C[C@@H](C(=O)OC)N(C(=O)CC(C)C)C3=N1, the Potency was inconclusive [inhibitor, partial curve]. In the case of CCOC(=O)C1Nc2ccc(C(=O)O)cc2C2C=CCC12 (stereo not drawn), the “activity change, negative = inhibition” value is reported as inactive: 2.82%. With Cc1[nH]nc(Nc2ccc(Br)cc2)c1[N+](=O)[O-] the “activity change, negative = inhibition” value was inactive: -22.7%. For CC(=O)NC(Cc1ccc(F)cc1)C(=O)NC1CCN(C(=O)NCc2ccccc2)CC1 (stereo not drawn), the “activity change, negative = inhibition” value was inactive: 6.62%. In the case of Cc1ccc(N2C(=O)CC3(CC4C=CC3C4)C2=O)cc1 (stereo not drawn), the “activity change, negative = inhibition” value is reported as inactive: -8.05%. With O=S(=O)(Nc1nc2ccccc2nc1Cl)c1ccccc1 the “activity change, negative = inhibition” value was inactive: 15.5%. For Nc1nc(CSc2n[nH]c(-c3ccccc3)n2)nc(Nc2ccccc2)n1, the Potency was active: 3.16 µM. For C=Cc1cc2c(cc1O)CCC1C2CCC2(C)C(O)CCC12 (stereo not drawn), the Potency was inconclusive [inhibitor, single point]. In the case of COc1ccc(-c2nc(-c3cccs3)c(-c3cccs3)[nH]2)cc1O, the Potency is reported as inconclusive [inhibitor, partial curve, poor fit]. For COc1ccc(Cl)cc1C(=O)NCC(c1ccco1)N(C)C (stereo not drawn), the “activity change, negative = inhibition” value was inactive: -21.9%. With Cc1c(NS(=O)(=O)c2ccc3c(c2)OCCO3)cccc1-c1nc2cccnc2s1 the Potency was active: 12.6 µM. For COc1ccc(NC(=O)c2cc(C)nc3ccccc23)cc1S(=O)(=O)N1CCOCC1, the Potency was inconclusive [inhibitor, partial curve]. For CCC(C)C(NC(=O)c1ccc(Cl)cc1)C(=O)O (stereo not drawn), the “activity change, negative = inhibition” value was inactive: 7.06%. With CCOc1ccccc1NC(=O)CSc1nnc(-c2ccco2)n1Cc1ccco1 the Potency was inconclusive [inhibitor, single point]. For COc1ccccc1/C=C1/SC(=O)N(CCC(=O)Nc2ccc(S(=O)(=O)Nc3nccs3)cc2)C1=O, the Potency was inconclusive [inhibitor, partial curve]. For COc1cccc(-c2nc(CS(=O)(=O)CC(=O)NCCc3cc(OC)ccc3OC)c(C)o2)c1, the Potency was inconclusive [inhibitor, partial curve]. For COc1ccc(NC(=O)c2oc3ccccc3c2NC(=O)C2CC2)c(OC)c1, the Potency was inconclusive [inhibitor, partial curve].
